# Article PMC10726135
# Some of the results follow. At the low end of the ranking the order means little. The protein was read in a cell extract, so binding may be indirect.
# Molecular target: T1, HNF4alpha8 (COS-7 nuclear extract) (UniProt P41235-5)
# T1 sequence: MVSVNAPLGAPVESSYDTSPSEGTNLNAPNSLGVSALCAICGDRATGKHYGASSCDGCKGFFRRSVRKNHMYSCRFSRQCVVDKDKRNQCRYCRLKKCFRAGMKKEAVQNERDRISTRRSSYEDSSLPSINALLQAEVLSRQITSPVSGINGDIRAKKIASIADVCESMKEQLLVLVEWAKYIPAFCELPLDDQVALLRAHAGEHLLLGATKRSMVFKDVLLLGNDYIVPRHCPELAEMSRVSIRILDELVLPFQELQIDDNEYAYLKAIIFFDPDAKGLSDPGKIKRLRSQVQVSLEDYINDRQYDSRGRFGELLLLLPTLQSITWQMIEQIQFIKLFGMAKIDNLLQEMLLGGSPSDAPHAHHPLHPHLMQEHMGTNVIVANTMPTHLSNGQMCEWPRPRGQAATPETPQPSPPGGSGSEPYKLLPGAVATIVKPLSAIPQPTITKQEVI
# Test: protein-binding microarray
# Settings: COS-7 nuclear extract on double-stranded Agilent 4x180k PBM; binding buffer, salt, pH and temperature not given; high values mean tight binding; double strand, one strand shown; sequences stand for … in …GCCTAGGGAGATTAGAGTATCGGTCGA
row,Sequence,binding signal (log2 normalized intensity)
1,TATGCCCAGAGCTTTGTTCTGTTCCAGTTA,-0.0226
2,GAGTAAAGTATCCAGTTAATCCCAGAAGAA,-1.15
3,TGCGCAAACATAAAGGCAAAGGTCAAGGAC,4.9
4,GTTTCCCTGTTTGCTTCTGCCCCCTGGAGG,3.5
5,TTGCTGCTCTCGCCTGGAAGTCCATTTCCC,1.87
6,GCTAAACAATTAAAGAACTCTTCATTATGG,-1.07
7,GAAGGCCCCAATTGCCAAGGGGGTGGTGAA,-1.35
8,TCATTACCTCCCTGGGCATGTCTGCTCCCT,1.73
9,TATGGCGAAAAAGGAAATATCTTCCCATAA,-1.33
10,CTCTGCACCCTTCCCTGAGTTTCCATTAAC,1.46
11,AGCCTTAGGTATGCCCCATGGTAAGAACTA,0.685
12,TTTCACAAATCATTACTATCTGCTGGGGGC,0.648
13,CTTGTATCGCCTGAATGACCACATGCCCTC,3.1
14,GGGAACTCCCTGACCCCTAGCACTTCCCGA,3.73
15,ATTGCCAATATCTGCCATCTACTAAGTGCT,-1.39
16,TGAATCCTCTTTGAGTCTGGTGTTCTCTTG,1.65
17,TTTGCTTAGTCTTATCTGAGGTGCCCTTAC,2.96
18,GGTCACAGTAACAGGGAGTCTGTTGCAAGC,-0.937
19,AACAGCAGCCACATTCCATGAGCTGGCCTC,-1.44
20,ACCATCTCCTTTTGTGAGAGGTCAATGTCC,7.14
21,CTCCTGCCCTACTCCCTTAAATAATGCATA,0.789
22,CCAACTCCCCTCCCAAGGCAGCAATCCCCT,4.9
23,GCTTGAAAACACAACAAAAGAACTCAAGAG,-1.34
24,GAGCACAGAAGGAGGGCGGGGAGTCTCCTG,-1.26

row,Sequence,binding signal (log2 normalized intensity)
1,CACGTAAATAAGGATAAAGTAAGGTGAAGC,-1.39
2,TGCTCCAGGCAAAGGGCATAACATGAGGCA,0.359
3,AACAAACTTTGCTGTGTCCCACAGGGAAAG,-1.09
4,AACATCTTTGGTATGGACTGATATTCAAAC,1.24
5,CACACCACACTCTCCTCCTGGCCTCCACTC,-1.17
6,CTGTGCTTTGGCCAAATAATAGCATTGTAG,0.31
7,GCTTCTCTTGGACCTCAATGTGCTCATCCA,1.42
8,GGAAGGTGCCAAGCATTCTAATCATTGAGG,-1.35
9,ATCCTTATCTTGTAGAAAAGTGCATGGATT,1.09
10,CCCACTCTTAGCAGAGATTCCTGCTGAGTT,-1.3
11,GGAGTTGGAACGGGGGCAAGGGTCAGAGTA,5.28
12,ACGTGGCAATCATTCTGTCTGCCTTCAGGC,-1.23
13,AGCCTTCCTGTTCAACTATTCCTCGACCTT,2.71
14,ATCCAGTAGAGGGCATAGCAGATAAGCATT,-1.23
15,CCCTTTGCACATGCCCCTCCCAGGGACACA,3.73
16,GCTCCAGGTAGTCCCTGCTCCACGCAAACA,-1.33
17,GTTGCCTATGCCCTTTGAAATTCTGGACTT,3.45
18,CAGGGTGGACTTTAAACATTCCCACCTAAG,3.87
19,GAACGCTCACAGAAAGAAGAGACAGCTGGG,-1.32
20,TATATGTTTTGCAACAAAGGCACTTTGATA,1.8
21,GTGTGGCATCTTGGGGTCAAGGCCTTTAAG,2.33
22,AATTCTTTGCTGTGGTAGGCTGTCCTGTGC,1.84
23,TGACTTCCAATTTACTTTTTAAACACCTAG,-1.45
24,GTTCTGCCATCTCGCAGAAAGTGGCCGGAC,1.64

row,Sequence,binding signal (log2 normalized intensity)
1,GCTTAGGACTGCAGGGGGCCAAGGGATACC,-1.25
2,CTCTGCAGTAACTGTCATGGATGACCTCTT,5.1
3,CAGCAAACAGGTCCTGCTGGTTTGCCATTT,0.235
4,CCGGACACAAAAGCTGCTGCCAAGCGTCAG,-1.44
5,AATACGACCTTTGGACAGGGTGACGTCATT,6.84
6,CAAACACAACATTGAAAGCGATCTTTGCAT,-0.637
7,TTACATGGATTAGTCCCTTTTCACGCTAAG,-1.33
8,TGGAGCCAGATGCACACAGGATCAATAAAA,-1.28
9,ACTCTCACCTTGGGGGCTGCTGGGGGCACA,1.1
10,TCCATAGTTCCGAGTTCCCTCGATTATTTC,-0.0853
11,TTTCCTTCTAGCTCCCCAATAGACATAACT,2.96
12,CCAGCGCAGGGGCTTCTGCTGAGGGGGCAG,-0.347
13,TGAGCATTCCAAAAAGCTTTTGTCATGACC,1.7
14,TCTTATCTGGGGGCCATTCCTCTATCTCCC,0.659
15,TGAGGGAGGGCACAGGCAACAGAGGAGCAT,-1.29
16,TGAGGTGCAGGACAAAGTGTGCACTTTGCA,2.54
17,AAAGAAGCTACTAGCAAATCTGCCCAACCT,-1.19
18,CAAAGGCATTTCTGGACTTGGATCAGCCTG,2.49
19,AGGAGGCTGAAGACTTTGCACCAAGGAGAC,0.928
20,GATAAGGATCTAAGAACTAACATGGATCTA,-1.33
21,AGTTATATCTTACCTCCTTCTCCCCCATGC,4.73
22,AGGACTTTGTGATTACATTGAGTCCACTGA,2.4
23,TGGGTAAACAGACCTCTCTCTCCCCAGACA,3.14
24,CACAGACTTTGGAATCACAATGATAACAGC,0.731

row,Sequence,binding signal (log2 normalized intensity)
1,GAGAGGGTTAAAAACCAGAATGACAAGCTG,-1.35
2,AGGCAGGGGATGAGATCTGAAGATAAATGC,-1.21
3,AAGAAAGAGACCTTTACCCTGACCTGTCAA,3.36
4,CCCTTTAGTGCCTGGATCTTGGAACAGGTC,1.97
5,TTACAGATAAGCAGAAGGTCAGGTGAATCA,-0.811
6,TTCTAAAAATAGCCTTACTTTAAAGCTGAT,-1.09
7,CCAGGAGCCCCACGTTTATCTTGGAACCTC,1.45
8,TGTGCTCCCGACTGCTCCACCAGCGCGTGC,-1.33
9,GATCATAATCCCTTATGACGGACAAAGGGC,2.17
10,GAACAGTCCTACAAATGATCAAAGGTTGGT,3.74
11,TCTGCCATTGTCGTGGTTGTAGAAAGCAGC,0.216
12,TTTTCTTGGACTTTGGTCATCCTTTACTTT,6.91
13,CACCTGGTTCCTTGCAAGATAAGGGTCAGC,2.94
14,ACCCTGGTCTTTGCCCTTTCCTAGACGTAA,2.89
15,ATGCCTGATAAAGGGGGCAAAGGGCATGGG,5.57
16,TGGGCCTGGCTGAGCCTGGGCCGCCAAACT,-1.22
17,CCTTGGCCTGCTCCTTGGAAGTCGCCGTGA,-1.26
18,AGCTGCTCTAAGAATGCAGAAACAAATACA,-1.31
19,GTAGACAATAGGGCAGAGGAAACAAACAGA,-1.39
20,AAGTCCAACAGGGTTAAAAGCAAACCAAAA,-1.29
21,TCATCTGGTGGCTTGAGTTGGAGAAGAGCA,-0.0434
